Results are given in words; binding and its absence hold for the method and conditions named. In cells and extracts the contact can be indirect. Some binding calls cover weakened binding; strength is not graded here.
Columns and labels:
Details in all cases: remark: other sources report otherwise
[1] = target: T1, human cyclin H (human (endogenous in HFFs)), P51946; experiment: co-IP; HFFs in T75 flasks infected with HCMV AD169 WT or UL97 point mutants, harvested 4-7 d.p.i.; cyclins T1, H, B1 immunoprecipitated with specific antibodies, pUL97 detected by Western blot; chicken Fc fragment as specificity control
T1 chain: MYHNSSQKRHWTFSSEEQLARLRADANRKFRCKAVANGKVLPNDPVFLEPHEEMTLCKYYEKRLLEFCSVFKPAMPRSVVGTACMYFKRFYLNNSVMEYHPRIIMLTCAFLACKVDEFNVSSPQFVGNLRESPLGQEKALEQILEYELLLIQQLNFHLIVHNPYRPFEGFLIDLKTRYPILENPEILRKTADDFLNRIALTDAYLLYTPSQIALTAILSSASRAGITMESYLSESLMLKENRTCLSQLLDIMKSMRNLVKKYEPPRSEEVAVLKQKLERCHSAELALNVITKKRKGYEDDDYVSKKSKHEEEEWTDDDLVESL

[2] = target: human cyclin B1 (human (endogenous in HFFs)), P14635; experiment: as above
[3] = target: T1, human cyclin H (human (endogenous in …)); experiment: co-IP; HFFs in T175 flasks infected with HCMV AD169 WT or ORF-UL97 deletion mutants, lysed 4 d.p.i.; cyclins H and T1 immunoprecipitated with specific antibodies, pUL97 detected by Western blot; chicken Fc fragment as negative control

Measured: binding

B1: HCMV protein kinase pUL97, strain AD169 wild type, P16788 1-707 (enzyme)
chain: MSSALRSRARSASLGTTTQGWDPPPLRRPSRARRRQWMREAAQAAAQAAVQAAQAAAAQVAQAHVDENEVVDLMADEAGGGVTTLTTLSSVSTTTVLGHATFSACVRSDVMRDGEKEDAASDKENLRRPVVPSTSSRGSAASGDGYHGLRCRETSAMWSFEYDRDGDVTSVRRALFTGGSDPSDSVSGVRGGRKRPLRPPLVSLARTPLCRRRVGGVDAVLEENDVELRAESQDSAVASGPGRIPQPLSGSSGEESATAVEADSTSHDDVHCTCSNDQIITTSIRGLTCDPRMFLRLTHPELCELSISYLLVYVPKEDDFCHKICYAVDMSDESYRLGQGSFGEVWPLDRYRVVKVARKHSETVLTVWMSGLIRTRAAGEQQQPPSLVGTGVHRGLLTATGCCLLHNVTVHRRFHTDMFHHDQWKLACIDSYRRAFCTLADAIKFLNHQCRVCHFDITPMNVLIDVNPHNPSEIVRAALCDYSLSEPYPDYNERCVAVFQETGTARRIPNCSHRLRECYHPAFRPMPLQKLLICDPHARFPVAGLRRYCMSELSALGNVLGFCLMRLLDRRGLDEVRMGTEALLFKHAGAACRALENGKLTHCSDACLLILAAQMSYGACLLGEHGAALVSHTLRFVEAKMSSCRVRAFRRFYHECSQTMLHEYVRKNVERLLATSDGLYLYNAFRRTTSIICEEDLDGDCRQLFPE
binds: all assays above
